About 120 (0.75%) of roughly 16,000 compounds were called active. Inconclusive results (about 4%) are left out. The call rests on the fitted dose curve; in most records, active means well fitted inhibition curve with a large enough effect; inconclusive means small, poorly fitted or top-dose-only effect; inactive means no such curve, though single readings can be large or run the other way. The list shows a part of the results.

We go through 49 molecules from PubChem BioAssay AID1645882 (National Center for Advancing Translational Sciences (NCATS), 2021).
Potency means the concentration at half of the fitted maximal effect.

Chain of UniProt O95398 (O95398 whole entry, looked up): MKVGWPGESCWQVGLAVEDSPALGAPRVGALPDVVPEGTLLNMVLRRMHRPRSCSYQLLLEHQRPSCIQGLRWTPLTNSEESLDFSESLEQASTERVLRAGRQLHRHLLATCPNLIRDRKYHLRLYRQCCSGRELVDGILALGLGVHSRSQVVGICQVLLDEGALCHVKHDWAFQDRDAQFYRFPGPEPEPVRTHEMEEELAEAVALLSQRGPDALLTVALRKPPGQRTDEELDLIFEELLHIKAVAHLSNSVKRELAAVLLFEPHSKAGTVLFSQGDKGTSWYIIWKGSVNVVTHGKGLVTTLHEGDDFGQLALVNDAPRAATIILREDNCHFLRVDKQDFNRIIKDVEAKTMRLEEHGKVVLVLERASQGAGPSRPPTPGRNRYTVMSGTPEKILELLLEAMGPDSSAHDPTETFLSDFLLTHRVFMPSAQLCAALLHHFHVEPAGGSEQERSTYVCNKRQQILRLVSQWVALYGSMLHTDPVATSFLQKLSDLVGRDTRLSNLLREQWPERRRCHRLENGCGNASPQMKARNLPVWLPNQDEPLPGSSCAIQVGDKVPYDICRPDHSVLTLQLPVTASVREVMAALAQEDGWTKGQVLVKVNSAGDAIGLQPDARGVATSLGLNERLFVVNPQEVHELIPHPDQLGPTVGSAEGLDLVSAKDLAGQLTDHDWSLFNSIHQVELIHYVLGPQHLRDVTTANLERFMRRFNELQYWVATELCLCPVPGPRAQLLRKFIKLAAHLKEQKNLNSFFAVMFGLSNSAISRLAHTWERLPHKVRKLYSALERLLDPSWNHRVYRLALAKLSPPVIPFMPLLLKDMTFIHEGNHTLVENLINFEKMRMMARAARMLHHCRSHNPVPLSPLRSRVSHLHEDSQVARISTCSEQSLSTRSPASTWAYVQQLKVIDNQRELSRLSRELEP

The target of this assay is Rap guanine nucleotide exchange factor 3 (Homo sapiens) (UniProt O95398). In words: Validation qHTS for antagonist of cAMP-regulated guanine nucleotide exchange factor 3 (EPAC1). Further: nearly all actives have a fitted effect of over 75% in size. Particulars: EPAC1 Rap1B-BODIPY-GDP exchange, fluorescence; series mostly up to 150 µM; activity change, negative = inhibition: at the top concentration. From the text:
Assay Provider (PI): Xiaodong Cheng Ph.D.
The University of Texas Medical Branch, […], TX
In multi-cellular eukaryotic organisms, the effects of cAMP are transduced by two ubiquitously-expressed intracellular cAMP receptors, the classic protein kinase A/cAMP-dependent protein kinase (PKA/cAPK) and the more recently discovered exchange protein directly activated by cAMP/cAMP-regulated guanine nucleotide exchange factor (EPAC/cAMP-GEF). Both PKA and EPAC are ubiquitously expressed in all tissues, and an increase in intracellular cAMP levels will lead to the activation of both PKA and EPAC. Therefore, careful dissections of the individual role and relative contribution of EPAC and PKA within the overall cAMP signaling in various model systems are critical for further elucidating the mechanism of cAMP signaling. To date no EPAC-specific antagonists and agonist, as well as isoform-specific agonists have been reported, and developing EPAC-specific pharmacological probes to determine the physiological functions that EPAC play in the overall cAMP-mediated signaling remains a major challenge within the research field. Furthermore, identified regulators of EPAC may lead to new mechanism-based therapeutic strategies specifically targeting the EPAC / cAMP-signaling components as EPAC has been implicated to play important roles in major human pathological conditions such as diabetes, heart disease, and cancer.
This qHTS will be used to screen the Molecular Libraries Small Molecule Repository (MLSMR) as a concentration-titration series using the NCGC unique quantitative screening (qHTS) platform to find activators for EPAC1. In addition, this assay will also be used as a counterscreen for the EPAC2 qHTS. This fluorescent based assay is developed and validated for EPAC1 that measures exchange using EPAC effector Rap1 complex with BODIPY-GDP, a GDP analog with a tethered fluorophores. Activators are identified by monitoring the change in fluorescence signal as the exchanged free BODIPY-GDP has a reduced fluorescence compared to Rap1-bound BODIPY-GDP. Increase in signal (activation) is the desired outcome for the EPAC1 agonist while no activity in this assay is desired for the EPAC2 agonist counterscreen.
[1] de Rooij, J., Zwartkruis, F. J., Verheijen, M. H., Cool, R. H., Nijman, S. M., Wittinghofer, A., and Bos, J.L. (1998) Nature 396, 474-477.
Briefly, three uL of reagents (100 nM EPAC1, 250 nM RAP1B-BODIPY-GDP, 50 uM GDP) were dispensed into a 1536-well Greiner black solid-bottom medium binding assay plate. Controls and test compounds (23 nL) were transferred to the plate via a Kalypsys pin tool equipped with a 1536-pin array. The plates were centrifuged at 1,000 rpm for 15 seconds followed by 5 minute incubation at room temperature. The assay plates were read at 5 minute intervals for 30 minutes in the ViewLux plate reader using 480nm excitation and 540nm emission filters. The results were normalized to the […] positive control ATA and DMSO.
Consider `CC(C)OC(=O)Nc1ccc2nc(-c3cscn3)[nH]c2c1`, for which the “activity change, negative = inhibition” value was inactive: 13.8%.

In the case of `COc1cccc2c(=O)c3ccoc3n(C)c12`, the “activity change, negative = inhibition” value was inactive: 5.74%.

With `CN1CCCC1CCO[C@@](C)(c1ccccc1)c1ccc(Cl)cc1` (some centres undefined), the “activity change, negative = inhibition” value was inactive: 10%.

Take `CC(=O)OC1CCC2(C)C(=CCC3C2CCC2(C)C3C[C@@H]3O[C@]32C(C)=O)C1` (some centres undefined): the “activity change, negative = inhibition” value is inactive: 4.16%.

As to `CN(Cc1ccco1)c1ncnc2ccc(-c3cccc(NS(C)(=O)=O)c3)cc12`, the “activity change, negative = inhibition” value was inactive: 1.98%.

On to `CC1OC(OCC2OC(Oc3c(-c4ccc(O)c(O)c4)oc4cc(O)cc(O)c4c3=O)C(O)C(O)C2O)[C@@H](O)C(O)C1O` (some centres undefined), for which the “activity change, negative = inhibition” value is inactive: -17.9%.

As for `Cn1cc(C2=C(c3ccc(Cl)cc3Cl)C(=O)NC2=O)c2ccccc21`, the activity change, negative = inhibition result is “inactive”.

With `O=c1c(CCc2ccccc2)nc2cnc(Nc3ccccc3)nc2n1C[C@H]1CCCO1`, the “activity change, negative = inhibition” value is inactive: 13.2%.

Consider `CN(C)CC(C)(C)CNC(=O)c1cnn(-c2nccc(-c3ccc4c(c3)OCO4)n2)c1-c1ccco1`, for which the “activity change, negative = inhibition” value is inactive: 25.7%.

Consider `Cn1c(SCC2CCCO2)nnc1C1CCN(Cc2ccccc2O)CC1` (centres undefined), for which the “activity change, negative = inhibition” value was inactive: 13.1%.

In the case of `COc1ccc(-c2c(-c3cc(OC)c(OC)c(OC)c3)noc2C)cn1`, the “activity change, negative = inhibition” value was inactive: 1.73%.

`CC(=O)N1CCC2(CCN(Cc3cc(C(F)(F)F)cc(C(F)(F)F)c3)CC2)CC1`: the “activity change, negative = inhibition” value was inactive: 1.58%.

On to `CCC[C@H]1COCCS(=O)(=O)N1Cc1cccc(F)c1`, for which the “activity change, negative = inhibition” value is inactive: -10.5%.

`O=C(Oc1ccccc1)c1cccc(C(=O)Oc2ccccc2)c1`: the “activity change, negative = inhibition” value is inactive: 32.9% [at 320 µM].

Take `Cc1ccc2c(/C=C/c3c[nH]c4ccccc34)ccnc2c1C`: the “activity change, negative = inhibition” value was inactive: 5.61%.

Turning to `CC(=O)Nc1ccc(S(=O)(=O)Nc2ccc([N+](=O)[O-])cc2)cc1`, the “activity change, negative = inhibition” value is inactive: 15.9%.

In the case of `CN(C)C(=O)c1ccc(-c2ccc3ncnc(NCc4ccccc4)c3c2)cc1`, the “activity change, negative = inhibition” value is inactive: 3.59%.

`O=C(c1ccncc1)N1CCC[C@@]2(CCN(Cc3cc(C(F)(F)F)cc(C(F)(F)F)c3)C2)C1`: the “activity change, negative = inhibition” value is inactive: -19.2%.

In the case of `Cc1noc(C)c1-c1nccc(N2CCOCC2)n1`, the “activity change, negative = inhibition” value is inactive: 8.6%.

On to `CCc1cc(C(N)=S)ccn1`, for which the activity change, negative = inhibition entry is “inactive”.

Regarding `Cc1cc(=S)[nH]c2ccccc12`, the “activity change, negative = inhibition” value was inactive: 16.7%.

As to `CN(C)C(=O)c1ccc(-c2cncnc2NC2CCNCC2)cc1`, the “activity change, negative = inhibition” value was inactive: -11.3%.

As for `O=C(CCc1c[nH]c2ccccc12)N1CCC(n2c(C3CCCO3)nc3cc(C(F)(F)F)ccc32)CC1` (centres undefined), the “activity change, negative = inhibition” value was inactive: 3.75%.

With `O=C(c1csnn1)N1CCC2(CC1)CCN(c1cccc(-c3ccccc3)c1)CC2`, the “activity change, negative = inhibition” value is inactive: 0.228%.

With `Cc1ccc(S(=O)(=O)NC(=O)NC2CCCCC2)cc1`, the “activity change, negative = inhibition” value was inactive: 4.4%.

On to `COc1cc2nc(N3CCN(C(=O)OCc4ccccc4)C(C(=O)NC(C)(C)C)C3)nc(N)c2cc1OC` (centres undefined), for which the “activity change, negative = inhibition” value is inactive: 7.27% [at 75.8 µM].

As to `Cc1noc(C)c1-c1cc(N2CCN(C)CC2)ncn1`, the “activity change, negative = inhibition” value is inactive: -3.25%.

For `CC(=O)Nc1c(I)c(NC(C)=O)c(I)c(C(=O)O)c1I`, the “activity change, negative = inhibition” value is inactive: 31.7%.

For the molecule `Cc1noc(C)c1C(=O)N1CCC2(CC1)CN(C(=O)Nc1cccc(F)c1)C2`, the “activity change, negative = inhibition” value is inactive: 12.4%.

Consider `CC[C@H](C)C(=O)O[C@H]1CCC=C2C=C[C@H](C)[C@H](CC[C@@H]3C[C@H](O)CC(=O)O3)[C@H]21`, for which the “activity change, negative = inhibition” value was inactive: -20.1%.

Consider `CC(C)(C)NCC(O)CSc1nc(-c2ccc(C(N)=O)s2)cs1` (centres undefined), for which the “activity change, negative = inhibition” value was inactive: 7.1%.

Regarding `Cn1cnc2c(ncn2[C@@H]2O[C@H](CO)[C@@H](O)[C@H]2O)c1=N`, the “activity change, negative = inhibition” value was inactive: 21.2%.

Consider `Cc1cccc(CNc2ccnc(-c3cccnc3)n2)c1`, for which the “activity change, negative = inhibition” value is inactive: 3.19%.

Turning to `NC(=O)c1ncn([C@@H]2O[C@H](CO)[C@@H](O)[C@H]2O)c1O`, the activity change, negative = inhibition entry was “inactive”.

Regarding `CN(C)C(=O)c1ccc(-c2nccc(N(C)Cc3ccco3)n2)cc1`, the “activity change, negative = inhibition” value was inactive: 10.4%.

As for `CC(C)C(NC(=O)c1ccoc1)c1nnc2n1CCN(C(=O)/C=C/c1ccc(F)cc1)CC2` (centres undefined), the “activity change, negative = inhibition” value was inactive: 17.6%.

With `CCc1nc2cc(C(=O)N3CCCN(C=O)CC3)cc(NC(=O)c3ccccc3OC)c2n1C`, the “activity change, negative = inhibition” value is inactive: 0.16%.

Consider `C[C@H](CCC(=O)O)[C@H]1CC[C@@H]2[C@H]3CC[C@H]4C[C@H](O)CC[C@]4(C)[C@@H]3CC[C@@]21C`, for which the “activity change, negative = inhibition” value was inactive: -12.1%.

Take `CN1CCN(C(c2ccccc2)c2ccc(Cl)cc2)CC1` (centres undefined): the “activity change, negative = inhibition” value is inactive: 17.1% [at 75.8 µM].

Consider `CCc1oc2ccccc2c1C(=O)c1cc(I)c(O)c(I)c1`, for which the Potency is active: 56.2 µM.

As to `COc1ccc(-c2nc3cnc(OC)nc3n(-c3ccccc3)c2=O)cc1`, the “activity change, negative = inhibition” value was inactive: 8.13%.

Regarding `CC(C)=CCC/C(C)=C/CC/C(C)=C/CCC(=O)OC/C=C(\C)CCC=C(C)C`, the “activity change, negative = inhibition” value was inactive: -26.1%.

Regarding `Cc1ccc(C(C)C)cc2c(C)ccc1-2`, the activity change, negative = inhibition result is “inactive”.

For `COCCn1c(=O)c(-c2cc(F)cc(F)c2)nc2cnc(Oc3cccc(Cl)c3)nc21`, the “activity change, negative = inhibition” value is inactive: -2.8%.

For the molecule `Cc1cccc(Nc2cc(Cl)nc(SCC(=O)O)n2)c1C`, the activity change, negative = inhibition entry was “inactive”.

For `CC(C)CN1CCCC2(CCN(C(=O)c3cc(C(F)(F)F)cc(C(F)(F)F)c3)CC2)C1`, the “activity change, negative = inhibition” value was inactive: -7.73%.

On to `COc1ccccc1-c1cc(-n2ccnc2)ncn1`, for which the “activity change, negative = inhibition” value is inactive: 10.7%.

With `COc1ccc(CC(N)C(=O)NC2C(O)[C@H](n3cnc4c(N(C)C)ncnc43)O[C@@H]2CO)cc1` (some centres undefined), the “activity change, negative = inhibition” value was inactive: 0.0514%.

As for `O=C(N/N=C/c1ccc([N+](=O)[O-])o1)c1ccc(O)cc1`, the “activity change, negative = inhibition” value is inactive: 382% [at 75.8 µM].
